The whole screen tested about 310,000 compounds, of which about 14,000 (4.5%) showed an effect of 50% or more. The effect is printed as a negative number. The list shows a part of the results.
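Further: peak tail current of the secondary pulse compared with the same well before compound.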

In the assay the target is human ether-à-go-go-related gene (hERG) potassium channel (human, UniProt Q12809). Description: primary screen, population patch clamp on CHO cells stably expressing hERG.
Chain of human ether-à-go-go-related gene (hERG) potassium channel (Q12809 whole entry, looked up): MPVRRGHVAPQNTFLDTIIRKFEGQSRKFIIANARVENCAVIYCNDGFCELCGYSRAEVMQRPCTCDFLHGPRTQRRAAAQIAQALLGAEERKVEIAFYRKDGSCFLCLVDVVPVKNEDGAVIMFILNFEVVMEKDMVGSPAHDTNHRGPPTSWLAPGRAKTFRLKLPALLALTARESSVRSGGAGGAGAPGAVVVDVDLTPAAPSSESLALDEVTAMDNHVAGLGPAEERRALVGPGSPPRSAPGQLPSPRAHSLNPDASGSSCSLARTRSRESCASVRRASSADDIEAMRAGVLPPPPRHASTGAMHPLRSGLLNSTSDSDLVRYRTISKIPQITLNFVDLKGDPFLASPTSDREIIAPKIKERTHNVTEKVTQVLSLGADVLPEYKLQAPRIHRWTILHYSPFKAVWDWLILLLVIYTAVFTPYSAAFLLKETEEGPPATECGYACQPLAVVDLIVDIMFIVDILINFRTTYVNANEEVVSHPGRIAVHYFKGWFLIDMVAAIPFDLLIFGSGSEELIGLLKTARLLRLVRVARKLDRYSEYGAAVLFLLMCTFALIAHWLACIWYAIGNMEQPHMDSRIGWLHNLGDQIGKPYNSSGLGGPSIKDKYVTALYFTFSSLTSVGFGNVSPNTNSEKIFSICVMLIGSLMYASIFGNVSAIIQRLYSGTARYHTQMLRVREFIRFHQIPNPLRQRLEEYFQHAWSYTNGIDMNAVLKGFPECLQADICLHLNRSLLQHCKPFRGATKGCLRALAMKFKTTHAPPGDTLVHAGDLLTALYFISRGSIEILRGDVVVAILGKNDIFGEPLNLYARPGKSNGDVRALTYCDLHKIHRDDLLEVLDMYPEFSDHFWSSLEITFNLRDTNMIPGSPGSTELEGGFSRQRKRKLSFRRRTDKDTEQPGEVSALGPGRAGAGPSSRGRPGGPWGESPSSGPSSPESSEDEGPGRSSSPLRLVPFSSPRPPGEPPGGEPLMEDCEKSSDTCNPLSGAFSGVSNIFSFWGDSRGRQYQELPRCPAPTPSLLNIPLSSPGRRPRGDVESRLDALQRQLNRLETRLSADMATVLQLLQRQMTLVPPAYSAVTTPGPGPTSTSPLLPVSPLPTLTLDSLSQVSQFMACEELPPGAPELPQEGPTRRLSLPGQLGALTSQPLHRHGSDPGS
In the case of `CNS(=O)(=O)c1ccc2nc(NC(=O)/C=C/c3ccco3)sc2c1`, the “hERG current change (%, negative = inhibition) at 10uM” value is on record as 9.18%.

In the case of `CC1(C)CC(=O)c2cc(C(=O)NC3CCSC3=O)c(=O)n(-c3ccc(Cl)cc3)c2C1` (stereo not drawn), the “hERG current change (%, negative = inhibition) at 10uM” value was -19.2%. For `O=C(c1ccco1)N1CCN(C(c2ccccc2F)c2nnnn2Cc2cccs2)CC1` (stereo not drawn), the “hERG current change (%, negative = inhibition) at 10uM” value is -51%. With `COCCNC(=O)c1cn(C)c2ccccc2c1=O` the figure was 16.3%. With `O=C(O)C1CC(=O)N(C2CCCCCC2)C1` (stereo not drawn) the figure was 6.42%; with `CC1(C)CC(=O)C2=C(C1)c1c(ccc3ccccc13)NC2c1cc([N+](=O)[O-])cc([N+](=O)[O-])c1O` (stereo not drawn), 8.9%.

As for `CCOCCOC(=O)C1=C(C)NC(=O)NC1c1cc2c(cc1Br)OCO2` (stereo not drawn), the “hERG current change (%, negative = inhibition) at 10uM” value was -30.5%. The figure for `CCOC(=O)C1(Cc2ccc(OC)cc2)CCN(C(=O)C2CCCO2)CC1` (stereo not drawn) is 1.97%; for `CSc1nc(C)c2cc(C)oc2n1` it is 3.34%. Take `COc1ccc(C(=O)N/C(=C\c2cccc([N+](=O)[O-])c2)C(=O)Nc2cccc(C(=O)O)c2)cc1`: the “hERG current change (%, negative = inhibition) at 10uM” value turned out to be 5.3%. The figure for `CC(=O)c1cccc(NC(=O)N2CCCC2C(=O)NCc2ccc3c(c2)OCO3)c1` (stereo not drawn) is 3.56%. The figure for `CCCCOc1ccc(C(=O)NCC(=O)OCC(=O)N2CCN(S(=O)(=O)c3ccc(C)cc3C)CC2)cc1` is 8.07%; for `Cc1cc(C(=O)NCCC(c2ccccc2)c2ccccc2)c(C)o1` it is -17.5%; for `Nc1nonc1-n1nnc(C(=O)N/N=C/c2ccccc2)c1CSc1ccccc1` it is 12.5%.

In the case of `Cc1ccn2c(=O)nc(SCC(=O)Nc3ccc4c(c3)OCCO4)nc2c1`, the “hERG current change (%, negative = inhibition) at 10uM” value was -12.7%.

Consider `O=C(c1cc2c(s1)CCCCC2)N1CCN(c2ncccn2)CC1`, for which the “hERG current change (%, negative = inhibition) at 10uM” value is given as -25.4%. With `CN(C)c1cc(NC(=O)CNC(C)(C)C)c2ccccc2n1.O=C(O)C(=O)O` the figure was -24.4%; with `CCOC(=O)N1CCC(N2CCN(S(=O)(=O)c3ccc(NC(C)=O)cc3)CC2)CC1.O=C(O)C(=O)O`, -21.8%; with `Cc1ccccc1C(=O)Nc1ccccc1N1CCCCC1`, 8.11%.

As for `CCCN1C(=O)/C(=C/c2ccc(C)o2)SC1=Nc1ccc(OCC)cc1`, the “hERG current change (%, negative = inhibition) at 10uM” value is listed as 7.08%. With `CC1Sc2ccc(S(=O)(=O)N3CCC(C(N)=O)CC3)cc2NC1=O` (stereo not drawn) the figure was 21.4%; with `Cc1cc(C(=O)Nc2nc3ccc(S(C)(=O)=O)cc3s2)c(C)o1`, 4.2%; with `Cn1c(=O)n(C)c2cc(S(=O)(=O)Nc3ccccc3O)ccc21`, -12.1%.

Regarding `O=C(Nc1ccc2c(c1)OCCO2)c1cc(-n2cnnc2)ccc1Cl`, the “hERG current change (%, negative = inhibition) at 10uM” value is on record as -0.885%.

As to `COc1ccc(C(=O)NCCc2nnc(SCC(=O)Nc3ccccc3)n2C)cc1`, the “hERG current change (%, negative = inhibition) at 10uM” value is -6.71%. The figure for `C=C(C)C(=O)Nc1cccc(C2=NOC3(C2)C[C@@H](C(N)=O)N(C(=O)C(=C)C)C3)c1` (stereo partly drawn) is 7.14%; for `COCCOC(=O)c1c(C)oc2ccc(OC(=O)COc3c(F)c(F)c(F)c(F)c3F)cc12` it is -1.25%. With `Cc1cccc(-c2noc(-c3ccccc3C(=O)NCc3ccco3)n2)c1` the figure was -16.7%; with `Cc1c(C)c2ccc(OC(C)C(=O)NCCN3CCOCC3)c(C)c2oc1=O` (stereo not drawn), 6.07%. With `COc1ccc(OC)c(N(CC(=O)NC2CCCC2)S(=O)(=O)c2ccc(OC)c(OC)c2)c1` the figure was -37.8%. Turning to `O=C(/C=C/c1ccc(S(=O)(=O)N2CCOCC2)cc1)NCc1ccc(Cl)cc1`, the “hERG current change (%, negative = inhibition) at 10uM” value is -42.2%. The figure for `OCCC1CN(Cc2ccc(F)cc2Cl)CCN1CCc1ccccc1` (stereo not drawn) is -67.4%. The figure for `CCc1cccc2c(C(=O)CN3C(=O)NC4(CCc5ccccc54)C3=O)c[nH]c12` (stereo not drawn) is 10.4%; for `Cc1c(C)c2cc(Cl)c(O)c(CN(C)C)c2oc1=O` it is 13.7%; for `O=C(/C=C/c1ccccc1)N/C(=C\c1ccco1)C(=O)O` it is 19.6%. The figure for `O=C(NC1CCCc2ccccc21)C1CCCO1` (stereo not drawn) is 15.7%; for `Clc1ccc(COc2ccccn2)cc1Cl` it is -6.01%. With `Cc1ccc(C(=O)NCC(=O)OCC(=O)c2ccc3c(c2)NC(=O)CO3)cc1`, the “hERG current change (%, negative = inhibition) at 10uM” value is listed as -60.6%.

On to `Cc1ccc2cc(C3CC(c4ccco4)=NN3C(=O)CCCC(=O)O)c(Cl)nc2c1` (stereo not drawn), for which the “hERG current change (%, negative = inhibition) at 10uM” value is -3.32%.

Turning to `COc1ccccc1NC(=O)CSc1nccc(-c2ccco2)n1`, the “hERG current change (%, negative = inhibition) at 10uM” value came out at 13.4%. The figure for `Cc1sc2nc(C(C)C)nc(SCC(=O)N3CCN(C(=O)c4ccco4)CC3)c2c1C` is -72.3%. The figure for `Cn1cc(-c2ccccc2)cc(C#N)c1=O` is 22.5%; for `COc1cccc(C(C(=O)NCC2CCCO2)N(C(=O)Cn2nnc3ccccc32)c2ccccc2C(C)=O)c1OC` (stereo not drawn) it is 4.57%; for `CCOC(=O)C1(CC2CC2)CCN(Cc2cnc(N(C)C)s2)CC1` it is -22.1%. As for `COC(=O)CN(C(=O)CSc1nnc(-c2cccc(OC)c2)o1)c1ccc(OC)cc1`, the “hERG current change (%, negative = inhibition) at 10uM” value was determined as 1.15%. The figure for `O=C(Nc1ccc(F)cc1F)C1(c2cccs2)CCOCC1` is 1.56%; for `COc1ccc(/C=C2/C(=O)N(c3ccccc3)N=C2C)cc1` it is 16.2%; for `COCC1CCCC1OS(N)(=O)=O` (stereo not drawn) it is -2.05%. With `CC(C)c1onc(C(=O)N(C)Cc2ccccc2)c1[N+](=O)[O-]` the figure was -9.27%; with `Cc1ccc(NC(=O)Cc2n[nH]c(=S)n2C)cc1`, 20.8%; with `Br.CC1CC(C)CN(CC(=O)c2ccc(OC(F)F)cc2)C1` (stereo not drawn), -91.5%.

Consider `CCOC(=O)c1sc(NC(=O)CCN2CC(C)OC(C)C2)c(C(=O)OCC)c1C.O=C(O)C(=O)O` (stereo not drawn), for which the “hERG current change (%, negative = inhibition) at 10uM” value turned out to be 13.9%. The figure for `C#Cc1ccc(C(=O)Nc2cc(C(N)=O)ccc2N2CCOCC2)cc1` is -36.7%. The figure for `CCn1cc(C(=O)OCC(=O)Nc2cccc(S(=O)(=O)N3CCOCC3)c2)c(=O)c2ccc(C)nc21` is 1.34%; for `CC(=O)N1N=C(c2ccncc2)OC12CCCC2` it is -1.03%. With `Cc1nc(N2CCN(C(=O)c3ccco3)CC2)c2c3c(sc2n1)CC(C)CC3` (stereo not drawn) the figure was -63.9%. For `COc1ccc(S(=O)(=O)N(C)Cc2cccs2)cc1Br`, the “hERG current change (%, negative = inhibition) at 10uM” value is on record as -7.76%. The figure for `CCN(Cc1nc2ccccc2c(=O)[nH]1)Cc1nc2ccsc2c(=O)[nH]1` is -14.3%; for `CCCCC(=O)NNC(=S)NC(=O)c1ccc(C)cc1` it is 33.9%. For `CN(C(=O)c1cnc(N2CCN(c3ncccn3)CC2)c2ccccc12)c1ccc(Cl)cc1`, the “hERG current change (%, negative = inhibition) at 10uM” value is -14.5%.

As to `O=C(NC1CCCCCC1)c1ccccc1-c1ccccc1`, the “hERG current change (%, negative = inhibition) at 10uM” value is given as -15.7%. The figure for `COCc1cc(=O)[nH]c2cc(NC(=O)c3cccc(OC)c3)c(C)cc12` is 19.2%; for `COc1ccc(-n2nc([N+](=O)[O-])c(=NCCc3ccc(Cl)cc3)n2O)cc1` it is 9.03%. In the case of `C#CCOc1ccccc1C(N)=O`, the “hERG current change (%, negative = inhibition) at 10uM” value is on record as 15.2%.

Consider `O=C(NCSc1ccncn1)c1ccccc1`, for which the “hERG current change (%, negative = inhibition) at 10uM” value is 13.3%. With `CCN(CCCCCCN)c1ccc2c(=O)[nH][nH]c(=O)c2c1` the figure was 6.75%. The figure for `COc1cccc(CNC(=O)C2CCN(C(=O)N(C)C)CC2)c1` is -20.9%; for `CCOC(=O)C(C)(C)Sc1nc2c(cnn2-c2ccc(C)cc2)c(=O)[nH]1` it is -1.92%.

Take `O=C(NC(O)C(=O)c1ccc(F)cc1)c1ccc(F)cc1` (stereo not drawn): the “hERG current change (%, negative = inhibition) at 10uM” value is listed as -2.27%. The figure for `CCCCC(=O)Nc1ccc(NC(=O)C2CC2)cn1` is 6.91%; for `CN(CC(=O)NCCN1CCN(Cc2ccccc2)CC1)S(=O)(=O)c1cccc2nsnc12` it is -25.4%; for `CCOc1cc(/C=N/O)cc(Br)c1OCC(=O)NCc1ccccc1` it is 1.7%. The figure for `COc1ccc(N2CCN(C(=S)Nc3ccc(C)cc3)CC2)cc1` is 11.3%; for `Cc1ccc(/C=C/C(=O)NC2CCCCCCC2)o1` it is -11.3%; for `CCO/N=C(/C)c1c(O)c(C)c(-c2ccccc2)n(-c2ccccc2)c1=O` it is 1.08%. As to `Cc1ccc(/C(O)=C2/C(=O)C(=O)N(c3ccccn3)C2c2ccc([N+](=O)[O-])cc2)cc1` (stereo not drawn), the “hERG current change (%, negative = inhibition) at 10uM” value amounted to 8.83%. With `CC(C)NC(=O)c1ccc2c3n(nc2c1)-c1ccc(Cl)cc1CO3` the figure was 5.99%; with `COc1ccc(S(=O)(=O)n2oc(=O)cc2-c2ccccc2)cc1OC`, -11.3%.

For `CCOC(=O)C(C)Sc1nnc(NC(=O)c2ccc3c(c2)OCO3)s1` (stereo not drawn), the “hERG current change (%, negative = inhibition) at 10uM” value is on record as 11.8%. The figure for `Cc1oc(-c2ccc(Cl)cc2)cc1-c1nn2c(-c3ccoc3C)nnc2s1` is -5.72%. The figure for `CCOC(=O)C1=C(C)N(CCCC(=O)O)C(=O)NC1c1cc2ccccc2c2ccccc12` (stereo not drawn) is 1.7%. The figure for `Br.CCCCCCn1ccc(=N)cc1` is 1.66%; for `COc1ccc(Nc2nc(-c3cccnc3)cs2)c(OC)c1` it is -11.7%; for `Cc1noc(C)c1S(=O)(=O)NCc1ccc(CN(C)C)cc1.Cl` it is 6.09%. Regarding `CCN(CCCNC(=O)C1CCC(=O)N1Cc1ccc(F)cc1)c1cccc(C)c1` (stereo not drawn), the “hERG current change (%, negative = inhibition) at 10uM” value was -18.3%. With `CN(Cc1nc(-c2ccncc2)no1)S(=O)(=O)c1ccc(Cl)cc1`, the “hERG current change (%, negative = inhibition) at 10uM” value is -55.5%.

With `CCOc1ccccc1OCCN1CCC(Cc2ccccc2)CC1.O=C(O)C(=O)O`, the “hERG current change (%, negative = inhibition) at 10uM” value is listed as -67.4%.

These data come from paper PMC4336329 (PLoS ONE, 2015).
